The assay deals with T1, Flag-Hsp70 (UniProt P0DMV8).
T1 construct: Hsp70, the inducible homolog of Hsc70 (HSPA1A/B); also called FLAG-tagged Hsp70; HSPA1A/B; source: HEK293-Tet-On, transfected (pcDNA3.1), in lysate
Put plainly: co-IP; Flag-Hsp70 immunoprecipitated with anti-Flag M2 magnetic beads, 2 h at 4°C, from HEK-Tet-On lysate (PBS, 1% TX-100); CFTR induced for 6 h with 20 μM MG132; without or with co-expressed myc-DJA2; washed with PBS, 0.1% TX-100; eluted with FLAG peptide; immunoblot. The settings on record: partners not purified. (In general: Immunoblotting shows a protein as a band on a membrane.)

Sequence of Flag-Hsp70 (P0DMV8 whole entry): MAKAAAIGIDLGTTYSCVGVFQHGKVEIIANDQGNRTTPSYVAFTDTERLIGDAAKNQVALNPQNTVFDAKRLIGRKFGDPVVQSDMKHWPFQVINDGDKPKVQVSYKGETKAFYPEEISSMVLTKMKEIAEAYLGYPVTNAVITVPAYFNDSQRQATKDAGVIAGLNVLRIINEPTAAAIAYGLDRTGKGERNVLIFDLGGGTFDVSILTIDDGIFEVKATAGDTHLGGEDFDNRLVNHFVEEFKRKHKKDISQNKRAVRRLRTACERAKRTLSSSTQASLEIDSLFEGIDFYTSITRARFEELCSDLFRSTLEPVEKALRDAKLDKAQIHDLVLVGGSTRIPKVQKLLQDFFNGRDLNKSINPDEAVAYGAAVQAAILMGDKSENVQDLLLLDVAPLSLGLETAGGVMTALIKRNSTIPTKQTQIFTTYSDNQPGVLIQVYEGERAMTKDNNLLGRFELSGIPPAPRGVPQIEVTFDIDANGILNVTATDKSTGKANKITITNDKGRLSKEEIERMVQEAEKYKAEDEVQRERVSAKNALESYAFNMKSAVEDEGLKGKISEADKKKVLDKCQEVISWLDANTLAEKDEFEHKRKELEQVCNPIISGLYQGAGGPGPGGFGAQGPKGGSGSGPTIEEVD

B1: CFTR-3HA (natural protein)
chain: not shown
notes: Cystic Fibrosis transmembrane conductance regulator (CFTR, gene ABCC7), wild type; it may be internal (an extracellular loop) in this widely used construct (surmised); also called WT CFTR; Cystic Fibrosis transmembrane conductance regulator; source: HEK293-Tet-On, transfected (pTRE-Tight, induced with doxycycline for 6 h), in lysate
For the molecule B1, the “fold increase of CFTR bound by Hsp70 with overexpressed DJA2, against Flag-Hsp70 without myc-DJA2” value turned out to be 2.1 fold.
